The list shows a part of the results.
Molecular target: T1, OsWOX13 (Oryza sativa, UniProt Q5QMM3 1-267)
T1 sequence: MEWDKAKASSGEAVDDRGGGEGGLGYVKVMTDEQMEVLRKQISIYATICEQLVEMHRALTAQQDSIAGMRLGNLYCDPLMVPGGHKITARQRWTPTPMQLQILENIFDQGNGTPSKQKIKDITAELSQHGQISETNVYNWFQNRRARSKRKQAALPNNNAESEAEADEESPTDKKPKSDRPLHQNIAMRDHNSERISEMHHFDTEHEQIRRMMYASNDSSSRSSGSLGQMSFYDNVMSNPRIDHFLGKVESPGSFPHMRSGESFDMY
Test: protein-binding microarray (RPBM); PBS, 2% BSA, 51.3 ng/ul salmon testes DNA, 50 uM zinc acetate, 200 nM TF, 25 C, 1 h; high values mean tight binding
Conditions: protein: recombinant; tags: N-terminal polyhistidine and DsRed monomer fusion (pET32a); label: CyDye5-dUTP incorporated in the synthesized complementary strand; 3' TTTTT single-stranded linker to array surface; dsDNA, one strand shown
Method in brief: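 Transcription factors were each fused at the N-terminus to a polyhistidine tag plus DsRed and expressed in E. coli BL21-CodonPlus before Ni–NTA purification. Binding to a double-stranded custom Agilent array was carried out with 200 nM protein at 25 °C for 1 h in PBS, 2% BSA, salmon testes DNA and 50 µM zinc acetate. The binding signal is per-feature fluorescence intensity, in arbitrary units, on an Axon 4000B scanner.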

Sequence | binding signal
GCCACCTGATTGGAGTTTCTATTACAGTGCTCAATAGAAACGGAGTCACCTAGTGCAG | 25700 fluorescence intensity (a.u.)
CCTGTGATTGCTCGGTAATATTAACTTGATCGCTTGCACACGGAGTCACCTAGTGCAG | 37600 fluorescence intensity (a.u.)
AAATAAATTAATATAACTTATAAAGCAGCTTTTGTATAATCGGAGTCACCTAGTGCAG | 13600 fluorescence intensity (a.u.)
ATATAAATTTTGGCTCCTAATTGACATCAATCCAAACACACGGAGTCACCTAGTGCAG | 25900 fluorescence intensity (a.u.)
CTTAATTTGTCACCTAGTCTGAAATTCGCCCTGAACCACACGGAGTCACCTAGTGCAG | 26900 fluorescence intensity (a.u.)
GTATTGATTTATTTTGGAAAGGGAGTGTGTGCGAGTTGTCCGGAGTCACCTAGTGCAG | 24900 fluorescence intensity (a.u.)
CATATAAGTTATAATATAATTATGCTCTAACTGCATTATACGGAGTCACCTAGTGCAG | 8730 fluorescence intensity (a.u.)
AGCCTAATTAAATCTTACACACAAAGAAACCAAAATTGGACGGAGTCACCTAGTGCAG | 7080 fluorescence intensity (a.u.)
TATATTGATTTTGTTTGTTGCATATATACTGCAGCCATCTCGGAGTCACCTAGTGCAG | 24900 fluorescence intensity (a.u.)
AAGATAGATTAATATATGATATATCTTTTCGCAAATATGCCGGAGTCACCTAGTGCAG | 32600 fluorescence intensity (a.u.)
TAATTATACATATTACGACTAATTTGCGAGACGAATCTTTCGGAGTCACCTAGTGCAG | 4180 fluorescence intensity (a.u.)
TGGTTTGTATTAATTTGTTCATTTCCGATTCAATTTTATTCGGAGTCACCTAGTGCAG | 4690 fluorescence intensity (a.u.)
TATGCTTTGATTGAGCCCCTGGAGAAGAGAGGAACAGAGGCGGAGTCACCTAGTGCAG | 35400 fluorescence intensity (a.u.)
ATTGATGACTAATTGAGATCGATCGATAGATAGTATAAGACGGAGTCACCTAGTGCAG | 11700 fluorescence intensity (a.u.)
AACTGTTGATGGGACAGATCCATCCAACAGGTTTGTGCTCCGGAGTCACCTAGTGCAG | 3860 fluorescence intensity (a.u.)
ATATTTTAAAATTTAAATTTTATATAGTTTAATCAAAGTCCGGAGTCACCTAGTGCAG | 7820 fluorescence intensity (a.u.)
TCAATGTATAATTACAATGTAAGTATAAGTAATTTATGGTCGGAGTCACCTAGTGCAG | 7260 fluorescence intensity (a.u.)
TGTAATTACATAATTTATGTTGTTGTGACTTGTTTTATCACGGAGTCACCTAGTGCAG | 50300 fluorescence intensity (a.u.)
AGCAATGATCAAATTAATATTGATGCATATATATCAAGTTCGGAGTCACCTAGTGCAG | 16300 fluorescence intensity (a.u.)
ACCCCACAATCACGTTGGCAAATAGCAGCTGCCCTGGTGCCGGAGTCACCTAGTGCAG | 6170 fluorescence intensity (a.u.)
CAAATTGAGCACAAATATTTTGGTGTTAAGTTAGAAGGATCGGAGTCACCTAGTGCAG | 6570 fluorescence intensity (a.u.)
TTAAAATTAACTTTAAAATTTAAATTTAGATTTTAATTTTCGGAGTCACCTAGTGCAG | 25700 fluorescence intensity (a.u.)
TCTAAATTACTGTTTAGTCGATGACTCGATGTAATACATTCGGAGTCACCTAGTGCAG | 19600 fluorescence intensity (a.u.)
GTATAGTCAATTATTGGCTTTAAATCATCTATAATCAATTCGGAGTCACCTAGTGCAG | 24700 fluorescence intensity (a.u.)
AAATTGATTTGTAGGTCATATACTTCCATTACGAAAATGCCGGAGTCACCTAGTGCAG | 32500 fluorescence intensity (a.u.)
CATCTTGTAGCGTCGATGTGATTGGACCTGGGTTTGCCGTCGGAGTCACCTAGTGCAG | 4480 fluorescence intensity (a.u.)
GTTAATTTGTACCACGTCAGATATAATCTCAGCGTCGATGCGGAGTCACCTAGTGCAG | 29200 fluorescence intensity (a.u.)

Sequence | binding signal
ATTATTGAATGATACTATTTCCGTTCGATGACCATACTCTCGGAGTCACCTAGTGCAG | 9000 fluorescence intensity (a.u.)
ATAAACCAGTGACTAATTTATTGCCTGCTGCACACGCGCTCGGAGTCACCTAGTGCAG | 13200 fluorescence intensity (a.u.)
CATATAAGTTACAGTGTAATTACACTACGATTGTACTATACGGAGTCACCTAGTGCAG | 4420 fluorescence intensity (a.u.)
TGAATGTAGAAAGATGATTGAGAGGAAAATAGGGAGAAATCGGAGTCACCTAGTGCAG | 6790 fluorescence intensity (a.u.)
TGATGATTTAACTGTGTTGCATGAATTCATTCCTATTTGACGGAGTCACCTAGTGCAG | 29500 fluorescence intensity (a.u.)
TAAATTGATCCGGTATTTATAGTTGAGGGATCACTAGTACCGGAGTCACCTAGTGCAG | 11100 fluorescence intensity (a.u.)
TTGCAATTAATTGCTATAATGGATTTCAGATTAATTTCTCCGGAGTCACCTAGTGCAG | 51000 fluorescence intensity (a.u.)
TTCGGGGATTGAATTTAGGCTATCTGTTGGAGAGAGGGGTCGGAGTCACCTAGTGCAG | 16200 fluorescence intensity (a.u.)
GGTGTGATTGCTGAAGGTGATGTCAAGGTATGCAAGATAACGGAGTCACCTAGTGCAG | 33900 fluorescence intensity (a.u.)
GGACTTATGATTAGCGGCATGACCATACGTGCGCCTATATCGGAGTCACCTAGTGCAG | 19000 fluorescence intensity (a.u.)
CCAGGACATCAATTAAACATGTAACTTATTGTTAAGTTTTCGGAGTCACCTAGTGCAG | 14900 fluorescence intensity (a.u.)
ATAATTGGTTGAAAAGAGAATATTAGTGGAGAAGTTATATCGGAGTCACCTAGTGCAG | 4660 fluorescence intensity (a.u.)
GCCCATAATTAAATTTAATTTGCCCATTGGAAGTGCTCAACGGAGTCACCTAGTGCAG | 34700 fluorescence intensity (a.u.)
TTATTAAGTCTAATTAATCTATCACTAGCAAATGTTTACTCGGAGTCACCTAGTGCAG | 6610 fluorescence intensity (a.u.)
GAGATAACGACCACAATCAATTAAATTCTTGGACAAGGGGCGGAGTCACCTAGTGCAG | 11500 fluorescence intensity (a.u.)
GTTATCATGATTTATATTCCCAAGGTTTGACTTAAACATTCGGAGTCACCTAGTGCAG | 11400 fluorescence intensity (a.u.)
TAAGTCCATAAATTACATATGTAAATTTAGTGTATTTATACGGAGTCACCTAGTGCAG | 4200 fluorescence intensity (a.u.)
GCCATCATTCTTTACTGTCAAATACCTAAACTGCAGCTAACGGAGTCACCTAGTGCAG | 3820 fluorescence intensity (a.u.)
AATGATATAAGATTGAGAATGAGAGGATAATTAGACTTGGCGGAGTCACCTAGTGCAG | 18900 fluorescence intensity (a.u.)
AATCGATTGATTGATAGCATATGAAGCTGCATGGGCCTAACGGAGTCACCTAGTGCAG | 45000 fluorescence intensity (a.u.)
AATCATCATTGACACAACCGAAAACGCCACTGAATACGGTCGGAGTCACCTAGTGCAG | 3420 fluorescence intensity (a.u.)
AGCGAAACTGATTGCAAAAGAAGGTAAATCGGCCACTTTACGGAGTCACCTAGTGCAG | 16900 fluorescence intensity (a.u.)
CAGCAGATTGCCCATCTCTCGTTGTACTGCCAATCTCTCCCGGAGTCACCTAGTGCAG | 8270 fluorescence intensity (a.u.)
TATGATTAAAATTGTTTTGAACCATTGCACGCACCAGCATCGGAGTCACCTAGTGCAG | 18500 fluorescence intensity (a.u.)
GCAATCAATCCATCACACACAAACACAAACAAACGCACAGCGGAGTCACCTAGTGCAG | 15100 fluorescence intensity (a.u.)
TTTAATTAGTCTCAATAGATTCGTCTCGCAAATTAGTTCACGGAGTCACCTAGTGCAG | 19800 fluorescence intensity (a.u.)
TTTAATATTTTACCAATTACCATTGGTGCGCTTGTCAGTTCGGAGTCACCTAGTGCAG | 6120 fluorescence intensity (a.u.)
